In PMC8844851 (The Journal of Biological Chemistry, 2022):
No constants are given. Whether binding was seen depends on the method and setting. In cells and extracts the contact can be indirect. Some results given as binding are weak or reduced against the parent protein; the word gives no strength. For part of these data: Tags and fused reporters may be left off the sequences shown.

Protein sequences, listed by entry. Tags and fused reporters are not part of them. Lines headed by an entry give the natural chain unless they say otherwise; changes in a name come on top. Chains listed by the source or under a name are the forms on record and can include a tag or linker. Residues count along the entry.
UniProt P32481: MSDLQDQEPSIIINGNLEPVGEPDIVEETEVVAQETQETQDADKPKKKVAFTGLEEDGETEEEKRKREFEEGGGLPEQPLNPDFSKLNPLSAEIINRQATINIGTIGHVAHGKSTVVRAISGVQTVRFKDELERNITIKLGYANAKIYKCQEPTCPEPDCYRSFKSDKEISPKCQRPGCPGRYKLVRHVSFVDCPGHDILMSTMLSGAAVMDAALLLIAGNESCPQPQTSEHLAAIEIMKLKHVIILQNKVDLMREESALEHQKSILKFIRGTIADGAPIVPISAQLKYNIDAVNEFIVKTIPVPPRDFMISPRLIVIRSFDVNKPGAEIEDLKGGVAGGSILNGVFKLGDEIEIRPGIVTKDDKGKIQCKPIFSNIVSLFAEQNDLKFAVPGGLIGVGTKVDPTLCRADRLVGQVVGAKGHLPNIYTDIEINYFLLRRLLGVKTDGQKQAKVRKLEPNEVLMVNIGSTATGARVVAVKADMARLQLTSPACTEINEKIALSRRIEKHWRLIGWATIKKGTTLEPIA
FLAG-tagged Gcd11 (1-514): residues 1-514 of P32481
FLAG-tagged Gcd11 lacking the first 60 amino acids: residues 61-527 of P32481

Columns and labels:
[1] = target: T1, endogenously FLAG-tagged Sui3 (S. cerevisiae) (UniProt P09064); test: co-IP; endogenously FLAG-tagged Sui2, Sui3 or Gcd11 precipitated with anti-FLAG beads from yeast extract, 4 °C, 2 h; Cdc123 signal normalised to the FLAG-tagged subunit, Gcd11 set to 100% (n = 3)
T1 sequence: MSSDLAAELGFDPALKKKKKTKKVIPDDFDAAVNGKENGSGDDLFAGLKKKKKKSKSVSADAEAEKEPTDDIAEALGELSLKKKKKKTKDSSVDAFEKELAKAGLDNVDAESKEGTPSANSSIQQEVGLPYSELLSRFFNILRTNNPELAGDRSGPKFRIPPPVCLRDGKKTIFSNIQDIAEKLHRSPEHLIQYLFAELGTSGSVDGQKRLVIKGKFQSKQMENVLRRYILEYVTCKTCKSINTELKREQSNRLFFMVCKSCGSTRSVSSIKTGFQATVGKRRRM

[2] = target: endogenously FLAG-tagged Gcd11 (S. cerevisiae) (UniProt P32481); test: as above
[3] = target: T2, N-terminally FLAG-tagged Sui3 Y131A/S132A (S. cerevisiae) (UniProt P09064); test: co-IP; N-terminally FLAG-tagged Sui3 variants (GAL1 promoter) precipitated with anti-FLAG beads from yeast extract; Western blot for Gcd11, Sui2, Cdc123 and Tif5-13xMYC
T2 sequence: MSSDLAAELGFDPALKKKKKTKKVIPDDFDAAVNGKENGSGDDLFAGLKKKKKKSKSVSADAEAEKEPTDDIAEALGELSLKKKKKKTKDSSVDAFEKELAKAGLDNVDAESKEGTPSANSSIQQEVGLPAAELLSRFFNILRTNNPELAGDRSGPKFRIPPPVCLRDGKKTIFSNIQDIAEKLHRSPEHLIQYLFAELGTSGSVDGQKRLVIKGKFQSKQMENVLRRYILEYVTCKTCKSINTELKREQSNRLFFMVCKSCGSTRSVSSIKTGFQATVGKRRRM

[4] = target: T3, N-terminally FLAG-tagged Sui3 L134R/L135R (S. cerevisiae) (UniProt P09064); test: as above
T3 sequence: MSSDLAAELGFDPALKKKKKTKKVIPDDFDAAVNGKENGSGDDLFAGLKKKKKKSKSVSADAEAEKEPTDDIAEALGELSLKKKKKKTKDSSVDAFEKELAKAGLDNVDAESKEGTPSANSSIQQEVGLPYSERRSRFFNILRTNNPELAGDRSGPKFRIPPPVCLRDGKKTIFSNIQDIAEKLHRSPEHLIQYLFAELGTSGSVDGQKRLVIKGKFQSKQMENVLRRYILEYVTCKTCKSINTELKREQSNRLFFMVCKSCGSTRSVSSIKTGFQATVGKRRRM

[5] = target: FLAG-tagged Gcd11 WT (S. cerevisiae) (UniProt P32481); test: co-IP; FLAG-Gcd11 variants (coexpressed with endogenous Gcd11) precipitated with anti-FLAG beads from yeast whole cell extract (around 2 mg protein), 4 °C, 2 h; Western blot of coprecipitated proteins; Cdc123 quantified against WT Gcd11 (n = 3)
[6] = target: FLAG-tagged Gcd11 (1-514) (S. cerevisiae) (UniProt P32481); test: as above
[7] = target: FLAG-tagged Gcd11 D403R (S. cerevisiae) (UniProt P32481); test: as above
[8] = target: FLAG-tagged Gcd11 V281R (S. cerevisiae) (UniProt P32481); test: as above
[9] = target: FLAG-tagged Gcd11 lacking the first 60 amino acids (S. cerevisiae) (UniProt P32481); test: as above

B1: yeast eIF2α (Sui2) (protein, UniProt P20459 1-304)
chain: MSTSHCRFYENKYPEIDDIVMVNVQQIAEMGAYVKLLEYDNIEGMILLSELSRRRIRSIQKLIRVGKNDVAVVLRVDKEKGYIDLSKRRVSSEDIIKCEEKYQKSKTVHSILRYCAEKFQIPLEELYKTIAWPLSRKFGHAYEAFKLSIIDETVWEGIEPPSKDVLDELKNYISKRLTPQAVKIRADVEVSCFSYEGIDAIKDALKSAEDMSTEQMQVKVKLVAAPLYVLTTQALDKQKGIEQLESAIEKITEVITKYGGVCNITMPPKAVTATEDAELQALLESKELDNRSDSEDDEDESDDE
[1]
  binding: binds
[2]
  binding: binds
[3]
  binding: no binding
[4]
  binding: no binding
[5]
  binding: binds
[6]
  binding: no binding
[7]
  binding: no binding
[8]
  binding: binds
[9]
  binding: binds
